Source: ChEMBL document CHEMBL5606460, “ASAP - DENV-2 NS2B-NS3 protease fluorescence single point” (2024)
Among all 2,000 compounds or so, about 110 (5.5%) showed an effect of 50% or more. Some of the results follow.

Target: Genome polyprotein (dengue virus type 2) (UniProt P29990)
[1] = Thailand/16681/1984, Concentration 25.0 uM, Number of replicates 1.0

`CN1CCN(c2ccc(CNS(=O)(=O)c3ccc(C(N)=O)cc3)cc2)CC1` gave an inhibition (Thailand/16681/1984, Concentration 49.5 uM, Number of replicates 2.0, Standard deviation 20.119100919634967 %) of 3.83%, an inhibition (Thailand/16681/1984, Concentration 99.01 uM, Number of replicates 2.0, Standard deviation 1.1600630082305827 %) of -8.14% and an inhibition (Thailand/16681/1984, Concentration 198.0 uM, Number of replicates 2.0, Standard deviation 11.722555520251234 %) of 2.42%.
`O=S1(=O)CCC(CN2CC[C@H](c3c[nH]c4ccccc34)C2)CC1` gave an inhibition (Thailand/16681/1984, Concentration 49.5 uM, Number of replicates 2.0, Standard deviation 2.0792070439401633 %) of -2.27%, an inhibition (Thailand/16681/1984, Concentration 99.01 uM, Number of replicates 2.0, Standard deviation 2.2961386855402206 %) of -2.06% and an inhibition (Thailand/16681/1984, Concentration 198.0 uM, Number of replicates 2.0, Standard deviation 2.402459073700363 %) of -1.62%.
`Cn1cc(NC(=O)c2cccc3ncccc23)cn1` was tested, and the inhibition (Thailand/16681/1984, Concentration 49.5 uM, Number of replicates 2.0, Standard deviation 0.5748440700005705 %) was -2.32%, the inhibition (Thailand/16681/1984, Concentration 99.01 uM, Number of replicates 2.0, Standard deviation 0.0176162025657954 %) was -1.95% and the inhibition (Thailand/16681/1984, Concentration 198.0 uM, Number of replicates 2.0, Standard deviation 0.5757711320804162 %) was -1.7%.
`Cc1cc(CO)c2cccc(C[C@H](NC(=O)[C@@H](N)CC(N)=O)C(=O)O)c2n1` was tested, and the inhibition (Thailand/16681/1984, Concentration 49.95 uM, Number of replicates 2.0, Standard deviation 0.5965579577659891 %) was 9.31% and the inhibition (Thailand/16681/1984, Concentration 99.9 uM, Number of replicates 2.0, Standard deviation 0.16349605474346013 %) was 25.5%.
`CNC(=O)c1cc(Cl)ccc1NS(=O)(=O)c1cc(Cl)cc(C(=O)NC)c1OC` was tested, and the inhibition (Thailand/16681/1984, Concentration 49.5 uM, Number of replicates 2.0, Standard deviation 3.5107220562143744 %) was -1.24%, the inhibition (Thailand/16681/1984, Concentration 99.01 uM, Number of replicates 2.0, Standard deviation 4.644293157051252 %) was 1.93% and the inhibition (Thailand/16681/1984, Concentration 198.0 uM, Number of replicates 2.0, Standard deviation 3.3165321375743706 %) was 8.2%.
`COc1cc(C(=O)NCCO)nc(N2CCNCC2)n1` showed an inhibition (Thailand/16681/1984, Concentration 49.5 uM, Number of replicates 2.0, Standard deviation 3.6618233971603567 %) of -4.83%, an inhibition (Thailand/16681/1984, Concentration 99.01 uM, Number of replicates 2.0, Standard deviation 2.7372142638980654 %) of -4.02% and an inhibition (Thailand/16681/1984, Concentration 198.0 uM, Number of replicates 2.0, Standard deviation 2.6691447011826064 %) of 1.2%.
`Cc1[nH]c(C#N)cc1C(=O)N(C)C1CCN(C(=O)c2ccc3c(C)n[nH]c3c2)CC1` showed an inhibition (Thailand/16681/1984, Concentration 49.5 uM, Number of replicates 2.0, Standard deviation 1.0210106926305917 %) of -1.72%, an inhibition (Thailand/16681/1984, Concentration 99.01 uM, Number of replicates 2.0, Standard deviation 1.3721862423245779 %) of -1.37% and an inhibition (Thailand/16681/1984, Concentration 198.0 uM, Number of replicates 2.0, Standard deviation 0.14252962553131407 %) of -0.212%.
`Cc1cc(CO)c2cccc(CC(=O)N3C[C@H](O)C[C@H]3C(=O)O)c2n1` gave an inhibition (Thailand/16681/1984, Concentration 49.95 uM, Number of replicates 2.0, Standard deviation 0.2659010955073496 %) of -4.6% and an inhibition (Thailand/16681/1984, Concentration 99.9 uM, Number of replicates 2.0, Standard deviation 0.3535766978005003 %) of -0.828%.
Compound `Cn1cc(NC(=O)c2ccccc2C(F)(F)F)c(-c2ccc(N)nc2)n1` has an inhibition (Thailand/16681/1984, Concentration 49.5 uM, Number of replicates 2.0, Standard deviation 0.02318042950620363 %) of -3.62%, an inhibition (Thailand/16681/1984, Concentration 99.01 uM, Number of replicates 2.0, Standard deviation 0.5795125921164253 %) of -3.54% and an inhibition (Thailand/16681/1984, Concentration 198.0 uM, Number of replicates 2.0, Standard deviation 2.685074924440845 %) of -2.16%.
`Cc1cc(CO)c2cccc(C[C@H](NC(=O)Cc3c(C)c4c(=O)[nH]n(C)c4[nH]c3=O)C(=O)O)c2n1` showed an inhibition (Thailand/16681/1984, Concentration 49.95 uM, Number of replicates 2.0, Standard deviation 0.9775980056715216 %) of 2.52% and an inhibition (Thailand/16681/1984, Concentration 99.9 uM, Number of replicates 2.0, Standard deviation 0.5749383103538409 %) of 7.17%.
Work on `O=Cc1ccc(N2CCC(C(=O)N3CCC[C@H]3c3cccc(F)c3)CC2)cc1` yielded an inhibition [1] of 13.9%.
`NCc1cccc(NC(=O)[C@@H](Cc2ccc(O)cc2)NC(=O)OCc2ccccc2)c1` gave an inhibition (Thailand/16681/1984, Concentration 49.5 uM, Number of replicates 2.0, Standard deviation 0.05643935060312033 %) of -2.95%, an inhibition (Thailand/16681/1984, Concentration 99.01 uM, Number of replicates 2.0, Standard deviation 0.226235853436777 %) of -2.21% and an inhibition (Thailand/16681/1984, Concentration 198.0 uM, Number of replicates 2.0, Standard deviation 0.3792919652166946 %) of -1%.
`CNC(=O)c1cc(Cl)cc(C)c1NS(=O)(=O)c1ccc(Oc2ccccc2Cl)cc1` was tested, and the inhibition (Thailand/16681/1984, Concentration 49.5 uM, Number of replicates 2.0, Standard deviation 1.9936078061389018 %) was -4.39%, the inhibition (Thailand/16681/1984, Concentration 99.01 uM, Number of replicates 2.0, Standard deviation 1.8430300976388188 %) was -5.53% and the inhibition (Thailand/16681/1984, Concentration 198.0 uM, Number of replicates 2.0, Standard deviation 2.010624849106266 %) was -7.09%.
In the case of `c1cnc2c(C3CCN(Cc4cscn4)CC3)c[nH]c2c1`, the inhibition (Thailand/16681/1984, Concentration 49.5 uM, Number of replicates 2.0, Standard deviation 1.714470745737797 %) is reported as -3.42%, the inhibition (Thailand/16681/1984, Concentration 99.01 uM, Number of replicates 2.0, Standard deviation 2.482934234636928 %) is reported as -3.54% and the inhibition (Thailand/16681/1984, Concentration 198.0 uM, Number of replicates 2.0, Standard deviation 1.6201369950511377 %) is reported as -3.14%.
In the case of `CS(=O)(=O)Nc1ccc(C(=O)Nc2nc3ccccc3s2)cc1`, the inhibition (Thailand/16681/1984, Concentration 49.5 uM, Number of replicates 2.0, Standard deviation 0.9713118875098187 %) is reported as 7.05%, the inhibition (Thailand/16681/1984, Concentration 99.01 uM, Number of replicates 2.0, Standard deviation 1.8224459140008862 %) is reported as 14.3% and the inhibition (Thailand/16681/1984, Concentration 198.0 uM, Number of replicates 2.0, Standard deviation 1.5774075085064292 %) is reported as 25.1%.
Work on `Cc1c(NC(=O)C2CCN(c3ccc(C=O)cc3)CC2)c(=O)n(-c2ccccc2)n1C` yielded an inhibition [1] of 15%.
For `COc1cc(CC(=O)NCc2ccccn2)nc(N2CCNCC2)n1`, the inhibition (Thailand/16681/1984, Concentration 49.5 uM, Number of replicates 2.0, Standard deviation 0.7207981006316144 %) was -4.58%, the inhibition (Thailand/16681/1984, Concentration 99.01 uM, Number of replicates 2.0, Standard deviation 0.19323318517880653 %) was -4.36% and the inhibition (Thailand/16681/1984, Concentration 198.0 uM, Number of replicates 2.0, Standard deviation 1.2378404652977986 %) was -5.06%.
For `COc1ccc([C@@H](C)NC(=O)C2CCN(c3ccc(C=O)cc3)CC2)cc1OC`, the inhibition [1] was 12.5%.
`Cc1cc(CO)c2cccc(Cc3ccccc3C(=O)NCc3sccc3C)c2n1` gave an inhibition (Thailand/16681/1984, Concentration 49.95 uM, Number of replicates 2.0, Standard deviation 0.661878407993628 %) of 1.17% and an inhibition (Thailand/16681/1984, Concentration 99.9 uM, Number of replicates 2.0, Standard deviation 2.367239112425795 %) of 7.83%.
